Measured values published in PMC5892938.
The other results are listed elsewhere or left out. Construct or isoform of the protein are uncertain.

These sequences were tested against GST-SBP-ILF3 (Homo sapiens) (UniProt Q12906) (assay: targeted RNA Bind-n-Seq). Conditions: RBNS binding buffer: 25 mM Tris pH 7.5, 150 mM KCl, 3 mM MgCl2, 0.1% Tween, 0.5 mg/mL BSA, 1 mM DTT; 27 nM protein, 750 pM RNA pool; temperature not stated; high values mean tight binding; sequences stand for … in GGGUAAAAGCGAGGUGAA…CGGGACAAGUAUUAUGGG.

Row | Sequence | binding signal (log2 fold change)
1 | GUGUGUGGUGUUGGUCUCUAACACCGCGCA [gtspaired] | -0.565
2 | UUUUUUUUUUGAGACUGCAGCAGUCUCCUG [tttttgagapaired] | 0.777
3 | GUGUUGUGUGUUGGACUCUAACACACAGCG [gtspaired] | -0.827
4 | UUUUUUUUUUGAGACGGCGGCCGUCUCCUA [tttttgagapaired] | 0.908
5 | GGUUGUUGUGUUGGCGCCUAACACAGCAAC [gtspaired] | -0.368
6 | GUGUGUGGUGUUGGCGUCUAACACCACGCA [gtspaired] | -0.781
7 | UUUUUUUUUUGAGAGGGCUGCCCUCUUCUG [tttttgagapaired] | 0.941
8 | UUUUUUUUUUGAGACUGCUACAGUCUCCGG [tttttgagapaired] | 0.385
9 | UUUUUUUUUUGAGAGCGAAGCGCUCUUCUG [tttttgagapaired] | 0.181
10 | UUUUUUUUUUGAGAUGGCAACCAUCUCCGG [tttttgagapaired] | 0.35
11 | GUGUGUGGUGUUGGCAUCUAACACCACGCA [gtspaired] | -0.603
12 | GUUGGUGGUGUUGGAUCCUAACACCGCCGA [gtspaired] | -0.489
13 | GUGGUGUGUGUUGGCGCCUAACACAUACCG [gtspaired] | -0.333
14 | UUUUUUUUUUGAGACUGAAACAGUUUCCAG [tttttgagapaired] | 0.189
15 | UUUUUUUUUUGAGACCGUAUCGGUCUUCUA [tttttgagapaired] | 0.257
16 | UUUUUUUUUUGAGACCGCAGCGGUCUUCUA [tttttgagapaired] | 0.714
17 | GUGUGUGGUGUUGGCCUCUAACACCAUAUA [gtspaired] | -0.897
18 | UUUUUUUUUUGAGAGGGAUCCCCUCUCCUG [tttttgagapaired] | 0.334
19 | UUUUUUUUUUGAGAGCGUAACGUUCUUCUA [tttttgagapaired] | 0.44
20 | UUUUUUUUUUGAGAGCGAGUCGCUCUUCUG [tttttgagapaired] | 0.561
21 | UUUUUUUUUUGAGAGUGUGACAUUCUUCUA [tttttgagapaired] | 0.0461
22 | GUGUGGUGUGUUGGACCCUAACACACUACA [gtspaired] | -0.232
23 | UUUUUUUUUUGAGACGGAACCCGUCUCCUG [tttttgagapaired] | 0.41
24 | UUUUUUUUUUGAGAUCGGGACGAUUUCCUA [tttttgagapaired] | 0.572
25 | GUGUGUGGUGUUGGAGCCUAACACCAUACG [gtspaired] | -0.298
26 | UUUUUUUUUUGAGACUGCUACAGUUUUCUA [tttttgagapaired] | 0.038
27 | GUGUGGUGUGUUGGAACCUAACACACCGCG [gtspaired] | -0.737
28 | UUUUUUUUUUGAGAGGGUAUCCCUCUCCUG [tttttgagapaired] | 0.253
